The results in this text go back to publication PMC12040169 (PLOS Biology, 2025).

The other results are listed elsewhere or left out.

This test relates to T1, C. trachomatis L2/434/Bu expressing GFP (CTL2-GFP).
T1 construct: L2/434/Bu GFP intracellular growth in HeLa cells
Further details: species or system HeLa; C. trachomatis total inclusion area by high-content imaging, normalised to DMSO. Particulars: total inclusion area; 28.5 h, 10 µM; inhibitor. The procedure, abridged:
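Bulk GFP and resorufin signals were read first. Wells were then fixed, stained with Hoechst and imaged to detect GFP inclusions and host nuclei. MICs followed the previously described calculation.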
For `CC(c1cccs1)N(C)C(=O)NC1CCCc2c1cnn2CCO` (stereo not shown) [CBK306289], the “% of control remaining” value amounted to 24.574.

Consider `Cc1cc(C)c(C)c(OCCCNC(=O)Cc2c(C)noc2C)c1` [CBK281506], for which the “% of control remaining” value was found to be 117.893.

As for `COc1cc(CN2CCN(C3CCCCC3)CC2)cc(OC)c1OC` [CBK263407], the “% of control remaining” value came out at 110.072. Next, `CCOC(=O)c1ccc(NC(=O)C(C)Oc2ccccc2C)cc1` (stereo not shown) [CBK268660]: 119.681. To `O=C(CSc1ccccc1)NCc1ccncc1` [CBK058023] belongs 65.7484; to `CC1CCC(C(N)=O)CN1C(=O)c1cncc(Br)c1` (stereo not shown) [CBK305773], 39.3309. To `CCOC(=O)c1cnn(C2CCCN(c3ccc(C#N)nc3)C2)c1` (stereo not shown) [CBK306458] belongs 67.3498.

On to `COC(=O)C1CC(O)CC1C(=O)N1CCCC1` (stereo not shown) [CBK011029], for which the “% of control remaining” value is 108.834. To `O=C(O)CCc1nc2ccccc2s1` [CBK264071] belongs 103.168; to `Cc1nnc(NS(=O)(=O)c2ccc(Br)cc2)s1` [CBK068266], 85.366. Next, `CN(C)CCN1CCN(c2nc(-c3occc3C=O)cnc2N)CC1` [CBK063917]: 78.4541. On to `O=C(/C=C/c1cccc([N+](=O)[O-])c1)Nc1ccc(O)cc1C(=O)O` [CBK263615], for which the “% of control remaining” value was 111.333. In the case of `Cc1ncccc1COC(=O)N1c2ccc(F)cc2CCC1C` (stereo not shown) [CBK200139], the “% of control remaining” value worked out at 111.052. Next, `COc1nccnc1-c1ccccc1Cl` [CBK107000]: 101.91; `C=CCNC(=O)c1ccccc1NC(=O)Cc1ccc(Cl)cc1` [CBK270086]: 68.5349; `CCC(C)[C@H](NC(=O)N1CCN(C(=O)c2cc3ccccc3[nH]2)CC1)C(=O)O` (stereo partly shown) [CBK286725]: 102.009. To `COc1ccc(-c2nccnc2N2CCN(C)CC2)cc1` [CBK038012] belongs 75.1398. Next, `CC1=C(CCN2CCCC(CO)C2)C(C)(C)CCC1` (stereo not shown) [CBK020827]: 49.0836. As for `Cc1cccc(-c2noc([C@@H]3Cc4[nH]cnc4CN3C(=O)CC(C)(C)CC(=O)O)n2)c1` [CBK288961], the “% of control remaining” value came out at 99.5972. To `FC(F)(F)c1ccnc(Sc2nccs2)n1` [CBK093771] belongs 91.8556; to `CC(C)Nc1cncc(Sc2ccccc2O)n1` [CBK091438], 81.2123; to `COc1ccc(CCNS(=O)(=O)N(C)C)cc1` [CBK264348], 125.815. Consider `COc1cc(S(=O)(=O)NCc2ccncc2)c(C)cc1C` [CBK269988], for which the “% of control remaining” value was found to be 62.6285. `CCOC(=O)C1(C2CCCCC2)CCN(C(=O)c2cscn2)CC1` [CBK137101]: the “% of control remaining” value was 86.3278. To `Cc1cc(C)c2c(N)c(C(=O)C(C)(C)C)sc2n1` [CBK115341] belongs 89.8402; to `O=C(O)c1cccc2c1C(=O)N(Cc1cccnc1)C2` [CBK291193], 111.743. On to `O=C(O)CNS(=O)(=O)c1cccc2cccnc12` [CBK034462], for which the “% of control remaining” value came to 106.599. Next, `COc1cc(C(=O)N2CCC3(CC2)CC(=O)c2cc(C)ccc2O3)cc(OC)c1C` [CBK167805]: 40.9128; `CCCn1c(SCC(=O)c2ccc(CCNC(C)=O)cc2)n[nH]c1=O` [CBK296965]: 90.8853. To `COc1ccc(-c2cnc(NCC3CC3)c(C(=O)NCc3ccccc3SC)c2)cc1` [CBK076437] belongs 73.017; to `Cc1cc(C)nc(N2CCC(CC(=O)NC(C)CCN3CCCCCC3)CC2)n1` (stereo not shown) [CBK285993], 130.884. To `OCCN(Cc1ccncc1)CC1(c2ccc(Cl)cc2)CC1` [CBK282782] belongs 59.1188; to `COc1ccc(CCNc2nc3c(c(=O)n(C)c(=O)n3C)n2Cc2ccccc2Br)cc1OC` [CBK267495], 88.1474. Consider `CCCCC(O)C[N+]1(C)CCC(c2ccccc2)CC1` (stereo not shown) [CBK006696I], for which the “% of control remaining” value is 40.5795. Next, `O=C(NC1CCN(CC2(c3ccccc3)CC2)CC1)C1CCOCC1` [CBK285352]: 85.5759. For `COc1ccc([C@@]23CCC(NC(=O)Nc4ccc5c(c4)Cc4ccccc4-5)C[C@@H]2N(C)CC3)cc1OC` (stereo partly shown) [CBK047550T], the “% of control remaining” value came out at 42.9103. To `CN(C)CC(C)(C)CNC(=O)c1cc(C(=O)c2ccc(Cl)cc2Cl)c[nH]1` [CBK107416] belongs 87.0491; to `COc1ccc(C)cc1S(=O)(=O)N1CCc2c(CN3CCOCC3)cccc21` [CBK113630T], 100.93; to `CC(C)(C)C(=O)CSc1nnc(Cn2cnc(Cl)c2Cl)o1` [CBK011055], 90.8001. `O=C(c1cccnc1NCc1ccc2c(c1)OCO2)N1CCNCC1` [CBK156112T]: the “% of control remaining” value was found to be 97.9993. For the compound `Cc1cccc(-c2cc(C(=O)Nc3sc4c(c3C#N)CCCCCC4)c3ccccc3n2)c1` [CBK262632], the “% of control remaining” value is listed as 95.67. Next, `N#Cc1ccc(-n2ncc(-c3cccc(C(F)(F)F)c3)n2)cc1` [CBK112675]: 55.4095; `O=C(CCSc1nc(-c2ccco2)cc(C(F)(F)F)n1)Nc1ccc2c(c1)OCO2` [CBK267627]: 94.9846; `Cc1ccc(-c2nc3ncccc3o2)cc1NC(=O)c1cccnc1` [CBK268774]: 131.55. To `O=C(Cn1c(-c2cccs2)cc2cccnc21)N1CCCCC1` [CBK282619] belongs 95.2132.

In the case of `Cc1cccc(CC(=O)N2CCC(c3ncc(C(=O)Nc4ccc(F)cc4)c(C)n3)CC2)c1` [CBK285885], the “% of control remaining” value came to 96.9382. Consider `CC(=O)Nc1ccc(C(=O)N(Cc2ccccn2)CC2CCCO2)cn1` (stereo not shown) [CBK306784], for which the “% of control remaining” value came out at 61.4147.

Turning to `Cn1ccc(C(=O)N2CCC[C@H](C(=O)c3ccc(F)cc3)C2)n1` [CBK284333], the “% of control remaining” value turned out to be 85.6816.

Regarding `O=C1CN(C(=O)Nc2ccc3c(c2)OCCO3)CCN1` [CBK155860], the “% of control remaining” value turned out to be 80.6551.

With `Cn1ccnc1CNc1nc(C(C)(C)C)nc2c1cnn2C` [CBK306894], the “% of control remaining” value is recorded as 59.488. As for `Nc1ccc(C(=O)Nc2ccc(Nc3cc(-c4cccnc4)ncn3)cc2)cc1` [CBK037823], the “% of control remaining” value amounted to 100.466. Regarding `N#Cc1cc2c([nH]c1=S)CCN(Cc1ccccc1)C2` [CBK288378], the “% of control remaining” value was found to be 108.057. With `CN(C)CCn1c2c(c3ccccc31)CCCn1nnnc1-2` [CBK267713C], the “% of control remaining” value is given as 95.7049.

With `CC(C)(CO)CNc1cncc(-c2cc3ccccc3o2)n1` [CBK066029], the “% of control remaining” value is 92.5009.

Turning to `Cc1csc(-c2ccc(C(=O)N(C)CCN(C)C)c(NCC3CC3)n2)c1` [CBK106279], the “% of control remaining” value is listed as 84.745. Take `CCN1CCN(c2ccc3nnc(C(C)C)n3n2)CC1` [CBK287974]: the “% of control remaining” value was determined as 100.631. On to `Cc1cnc2c(C(=O)N3CCCC3c3ccccn3)cnn2c1` (stereo not shown) [CBK304612], for which the “% of control remaining” value is reported as 12.7598. `COc1cc(C)nc(NC(=O)Nc2cccc(Cl)c2)n1` [CBK269828]: the “% of control remaining” value stood at 98.0847.

With `CN(C)CCCN[C@H]1CC[C@@H](c2ccccc2)CC1` [CBK016465], the “% of control remaining” value amounted to 113.461. Next, `CCOC(=O)C1(C2CCCCC2)CCN(C(=O)CCC(=O)O)CC1` [CBK136939]: 89.9556; `Cc1ccc(C)c(NC(CC(=O)c2ccccc2)C(=O)O)c1` (stereo not shown) [CBK265485]: 104.871. Regarding `O=C(CC1Sc2ccc(Cl)cc2NC1=O)Nc1ccc([N+](=O)[O-])cc1` (stereo not shown) [CBK264860], the “% of control remaining” value is recorded as 125.907. On to `CC(/C=C1\SC(=S)N(CCC(=O)Nc2ccc(O)c(C(=O)O)c2)C1=O)=C\c1ccccc1` [CBK263875], for which the “% of control remaining” value is 95.785. Next, `O=C(C1CCCC1)N1CCC(n2nc(-c3cccs3)oc2=O)CC1` [CBK282424]: 106.127. Next, `CC(=O)NCC1CC(c2ccc(C3=CCN(C(C)=O)CC3)cc2)=NO1` (stereo not shown) [CBK010245]: 71.7051; `CN1C(/C=N/O)=C(O)c2ccccc2S1(=O)=O` [CBK010098]: 65.7907. Consider `Oc1ccc2cc(-c3ccc(OC(F)(F)F)cc3)cnc2n1` [CBK081300], for which the “% of control remaining” value was 23.6281. Next, `CN(C)CCNC(=O)c1ccc(COc2ccc(Cl)cc2Cl)cc1` [CBK265878]: 67.5807. Consider `Cn1ncc2c(NCCN3CCOC3=O)nc(C(C)(C)C)nc21` [CBK307511], for which the “% of control remaining” value is recorded as 62.9969. As to `O=C(O)Cc1sc(NCCN2CCOCC2)nc1-c1ccccc1` [CBK200113T], the “% of control remaining” value stood at 103.73. Consider `CCCCCC1=NN(C(=O)c2ccccc2Br)C(O)(C(F)(F)F)C1` (stereo not shown) [CBK027223], for which the “% of control remaining” value is reported as 93.2813.

Regarding `CCCc1n[nH]c(=S)n1CC(=O)NCc1ccc(Oc2cc(C)ccc2C)nc1` [CBK297742], the “% of control remaining” value worked out at 113.34. Next, `Cc1ccc(CN(Cc2[nH]cnc2C)C2CC(C)(C)NC(C)(C)C2)o1` [CBK283176]: 91.874; `O=C(CN1CCN(CC(=O)NC2CC2)CC1)Nc1cc(Cl)ccc1Cl` [CBK306091]: 50.5891; `O=C(/C=C/c1cn(C2CC(O)C(CO)O2)c(=O)[nH]c1=O)NCCCCCCNC(=O)C(F)(F)F` (stereo not shown) [CBK201310]: 98.0764. To `Cn1c(=O)c2c(nc(NCc3ccccc3)n2C)n(C)c1=O` [CBK139872] belongs 71.4862. `O=C(O)C1CCCCC1C(=O)NCCCN1CCOCC1` (stereo not shown) [CBK286903]: the “% of control remaining” value is given as 50.0468. To `COc1ccc(-c2nc3c(n2O)CCc2c-3no[n+]2[O-])cc1OC` [CBK262350] belongs 98.023; to `Cc1ccc(-c2ccccc2CC2(C(=O)O)CCN(Cc3ccccc3F)CC2)c(C)c1` [CBK286418], 87.6344. To `O=C(Cn1nnc2ccccc2c1=O)NC1CCN2CCCCC12` (stereo not shown) [CBK305589] belongs 98.0541. On to `Cn1c(=O)c2c(nc(CN3CCOCC3)n2CC(=O)c2ccccc2)n(C)c1=O` [CBK269195], for which the “% of control remaining” value is 119.805. To `CC(C)[C@@H](CO)Nc1cncc(-c2cccc(Cl)c2)n1` [CBK037261] belongs 101.223.
